PubChem BioAssay (NCATS)
Inconclusive means that the source gave no clear call. Such entries were picked first, then a sample of the others. Potencies of inconclusive entries are left out as doubtful fits. The source made the active and inactive calls. The call rests on the fitted dose curve; in most records, active means well fitted inhibition curve with a large enough effect; inconclusive means small, poorly fitted or top-dose-only effect; inactive means no such curve, though single readings can be large or run the other way.
Potency means the concentration at half of the fitted maximal effect; tags describe the fitted curve by direction and shape.

Assay: qHTS Screen of the MIPE 4.0 Collection Against Ewings Sarcoma (EW8) (AID 1259255); further: nearly all actives have a fitted effect of over 35% in size
Settings: EW8 Ewing sarcoma viability, CellTiter-Glo, 48 h; series mostly up to 45.8 µM
In short: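 Dose series incubated 48 h with cells in RPMI plus 5% FBS, glutamine and penicillin/streptomycin; cell viability then quantified via CellTiter-Glo.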
For `C=Cc1c(C)c2cc3nc(cc4[nH]c(cc5nc(cc1[nH]2)C(C)=C5CCC(=O)O)c(CCC(=O)OC)c4C)[C@@]1(C)C3=CC=C(C(=O)OC)[C@H]1C(=O)OC`, the Potency was active: 0.118 µM. For `CC1(C)C(N(O)C(=O)Nc2ccc(Cl)cc2)N(c2ccc(Cl)cc2)C(=O)N1CC(=O)NN=CC=Cc1ccc([N+](=O)[O-])o1` (centres undefined), the Potency was active: 14.8 µM. In the case of `COC(=O)[C@@H]1CC2=CC(=O)CC[C@]2(C)[C@@]23O[C@@H]2C[C@@]2(C)[C@H](CC[C@@]24CCC(=O)O4)[C@@H]13`, the Potency is reported as “inactive”. With `NC1=N[C@H]2[C@H](CS[C@H]2CCCCC(=O)O)N1` the Potency was “inactive”. With `COc1ccc(-n2nc(C(N)=O)c3c2C(=O)N(c2ccc(N4CCCCC4=O)cc2)CC3)cc1` the Potency was “inactive”. In the case of `CN1C(C(=O)Nc2ccccn2)=C(O)c2sc(Cl)cc2S1(=O)=O`, the Potency is reported as active: 20.9 µM. For `Cc1cc(CS(=O)(=O)c2ccccc2)cc(OCc2ccc(CN3CCC[C@H]3CO)cc2)c1`, the Potency was inconclusive [inhibitor, single point]. With `Clc1cccc(-c2nnnn2Cc2cccnc2)c1Cl` the Potency was “inactive”. In the case of `CS(=O)(=O)c1ccc([C@@H](O)[C@@H](CO)NC(=O)C(Cl)Cl)cc1`, the Potency is reported as inconclusive [inhibitor, partial curve].
